The supplement of paper PMC12340641
Over roughly 1,000 compounds, “relative growth recovery (pomalidomide 10 uM = 100%, DMSO = 0%)” has its median near -1.6; the highest 2% begin near 21. This is one part of the list.

test system: HEK293FT dCK*-IKZF1; experiment: relative growth recovery (pomalidomide 10 uM = 100%, DMSO = 0%); higher = more growth rescue (IKZF1 fusion degradation); conditions: compound concentration: 5 uM; AraC concentration: 0.3 uM; overnight pretreatment + 4 days AraC
Procedure: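 Growth recovery screen of the molecular-glue-like (Specs) library. HEK293FT cells expressing a dCK*-IKZF1 fusion (primary) or dCK* alone (counter) were pretreated overnight with compound at 5 uM, then given 0.3 uM AraC for 4 days. Hoechst nuclei were counted by imaging. Primary: normalised to pomalidomide (100%) and DMSO (0%), mean of 2 replicates. Counter: normalised to no-AraC (100%) and AraC+DMSO (0%), single replicate.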

Row | Structure (SMILES) | relative growth recovery [%]
1 | Cc1cc(C)nc(NS(=O)(=O)c2ccc(NC(=O)CSc3nccn3C)cc2)n1 | -7.77
2 | O=C(C1CCCCC1)N1CCC(c2cccc(Nc3ncc(Cl)s3)n2)CC1 | 0.27
3 | C[C@@H](N)C(=O)N1CCC(CO)(c2cccc(Nc3ncc(-c4ccccc4)s3)n2)CC1 | -18.2
4 | CCCc1cnc(Nc2cccc(C3CCN(C(=O)[C@@H]4CCCCN4C(=O)OC(C)(C)C)CC3)n2)s1 | -13.7
5 | Cc1cc(C)c2[nH]c3nc(SCC(=O)Nc4cc(Cl)ccc4C)nnc3c2c1 | -3.62
6 | Cc1ccc2[nH]c3nc(SCC(=O)Nc4cccc(Cl)c4)nnc3c2c1 | -6.41
7 | CC(=O)Nc1cc(C)c(S(=O)(=O)N2CCOC(c3cccc(Nc4ncc(C)s4)n3)C2)cc1C (stereo not given) | 9.32
8 | O=C(Cc1ccc(F)cc1)N1CCCC1c1cccc(Nc2nccs2)n1 (stereo not given) | 10.4
9 | O=C(CSc1nnc2c(n1)[nH]c1ccccc12)Nc1ccc(F)cc1 | 7.2
10 | Cc1cnc(Nc2cccc(C3CN(C(=O)CNc4ccccc4)CCO3)n2)s1 (stereo not given) | -13.3
11 | Cc1ccc(Oc2cccc(N3C(=O)c4ccc(Oc5ccc(N)cc5)cc4C3=O)c2)cc1C | -3.76
12 | Cc1ccc(C)c(OCC(=O)Nc2ccc(S(=O)(=O)Nc3ncccn3)cc2)c1 | -18.5
13 | CCCc1cnc(Nc2cccc(C3CCN(C(=O)C(C)(C)NC(=O)COC)CC3)n2)s1 | 0.245
14 | Cc1ccc(CC(=O)N2CCOC(c3cccc(Nc4nc(C)c(C)s4)n3)C2)cc1C (stereo not given) | 12.3
15 | COC(=O)c1ccc(N2C(=O)c3ccc(Oc4cccc(N)c4)cc3C2=O)cc1 | 1.72
16 | Cc1noc(CCC(=O)N2CCOC(c3cccc(Nc4nc(C)c(C)s4)n3)C2)n1 (stereo not given) | 3.4
17 | CC(=O)Oc1cccc(N2C(=O)c3ccc(Oc4cccc(N)c4)cc3C2=O)c1 | -0.785
18 | Cc1ccc2[nH]c3nc(SCC(=O)Nc4ccc(C)c(Cl)c4)nnc3c2c1 | -24.6
19 | Cc1ccc(OCCCC(=O)Nc2ccc(S(=O)(=O)Nc3ccccn3)cc2)cc1 | 2.46
20 | O=C(Nc1ccc(S(=O)(=O)Nc2ncccn2)cc1)C1CC(=O)N(c2ccc(Cl)cc2)C1 (stereo not given) | 5.58
21 | Cc1cccc(Nc2nc(-c3sc(NC(=O)c4ccccc4)nc3C)cs2)n1 | 121
22 | COCCOCC(=O)Nc1ccc(S(=O)(=O)Nc2nc(C)cc(C)n2)cc1 | -4.72
23 | CC1(C)C=C(CC(=O)N2CCOC(c3cccc(Nc4nccs4)n3)C2)CC(C)(C)N1 (stereo not given) | -3.67
24 | Cc1ccc(C(=O)Nc2ccc(S(=O)(=O)Nc3cc(C)nc(C)n3)cc2)cc1 | -1.57

Row | Structure (SMILES) | relative growth recovery [%]
25 | Cc1cnc(Nc2cccc(C3CCN(C(=O)C4(N)CCCCC4)CC3)n2)s1 | -17.6
26 | Cc1cnc(Nc2cc(C3CCN(C(=O)/C=C/c4cnc[nH]4)CC3)ccn2)s1 | -3.89
27 | CCCC(=O)Nc1ccc(S(=O)(=O)Nc2nc(C)cc(C)n2)cc1 | -4.25
28 | Cc1cnc(Nc2cccc(C3(COC(=O)C4CCCCC4)CCN(C(=O)C4CCCCC4)CC3)n2)s1 | -9.19
29 | Nc1ccc(S(=O)(=O)Nc2nccc(/C=C/c3ccc(Cl)cc3)n2)cc1 | -0.605
30 | CCCc1cnc(Nc2cccc(C3CCN(C(=O)C(C)(C)NC(=O)OC(C)(C)C)CC3)n2)s1 | -14.9
31 | Cc1csc(Nc2cccc(C3CCCN3C(=O)Cc3ccc(F)cc3)n2)n1 (stereo not given) | 3.22
32 | CCc1nnsc1C(=O)N1CCCC1c1cccc(Nc2nc(C)cs2)n1 (stereo not given) | 2.26
33 | COc1ccc(Cl)cc1NC(=O)CSc1nnc2c(n1)[nH]c1ccc(F)cc12 | -1.31
34 | Cc1cnc(Nc2cccc(C3CCN(C(=O)C4(C)CCCCC4)CC3)n2)s1 | -9.22
35 | O=C(COc1ccc(Cl)cc1Cl)Nc1ccc(S(=O)(=O)Nc2ncccn2)cc1 | -4.71
36 | COC(=O)C(c1cccc(Nc2ncc(C)s2)n1)C1CCN(C(=O)[C@H](CC(C)C)NC(=O)OC(C)(C)C)CC1 (stereo not given in full) | -0.715
37 | COc1cc(NS(=O)(=O)c2ccc(NC(=O)c3ccc([N+](=O)[O-])cc3)cc2)nc(OC)n1 | -1.01
38 | CNC(=O)c1cnc(Nc2cccc(C3CCN(C(=O)C4CCCCC4)CC3)n2)s1 | -7.04
39 | COCC(=O)N1CCCC(Cc2ccc(Nc3ncc(-c4ccc(F)cc4)s3)nc2)C1 (stereo not given) | -9.28
40 | C[C@@]1(O)CNCC[C@H]1n1cnc2c(N)nc(N)nc21 | -7.17
41 | O=C(C1CNCCO1)N1CCC(c2cccc(Nc3ncc(-c4ccccc4)s3)n2)CC1 (stereo not given) | 2.58
42 | Cc1cnc(Nc2cccc(C3CN(C(=O)C4C5C6CCC(C6)C45)CCO3)n2)s1 (stereo not given) | -6.94
43 | CC(C)CC(=O)N1CCCC1c1csc(Nc2ccccn2)n1 (stereo not given) | 2.83
44 | O=C(CSc1nnc2c(n1)[nH]c1ccc(F)cc12)Nc1cccc(F)c1 | -0.995
45 | COc1cc(OC)cc(C(=O)Nc2ccc(S(=O)(=O)Nc3ncccn3)cc2)c1 | -4.95
46 | Cc1cnc(NC(=O)CN2CCC(c3cccc(Nc4ncc(C)s4)n3)CC2)s1 | -13.8
47 | Cc1cc(OCC(=O)Nc2ccc(S(=O)(=O)Nc3ccccn3)cc2)cc(C)c1Cl | -6.37
48 | Cc1cc(NS(=O)(=O)c2ccc(NC(=O)c3oc4ccccc4c3C)cc2)nc(C)n1 | -1.21

Row | Structure (SMILES) | relative growth recovery [%]
49 | O=S(=O)(Cc1ccccc1)Nc1ccc(S(=O)(=O)Nc2ncccn2)cc1 | -0.185
50 | CC(C)N(C(=O)CN1CCC(Cc2cccc(Nc3nccs3)n2)CC1)C1CCCCC1 | -3.21
51 | Cc1cc(C)nc(NS(=O)(=O)c2ccc(NC(=O)c3ccccc3OC(C)C)cc2)n1 | -2.05
52 | CCN(CC)C(=O)CN1CCC(c2cccc(Nc3nc(C)c(C)s3)n2)CC1 | -0.815
53 | Cc1cnc(Nc2cccc(C3CN(C(=O)C4CCOC4)CCO3)n2)s1 (stereo not given) | -8.06
54 | O=C(c1cccc2cccnc12)N1CCCC1c1cccc(Nc2nccs2)n1 (stereo not given) | -1.58
55 | Cc1ccn2cc(C(=O)N3CCCC3c3cccc(Nc4nc(C)c(C)s4)n3)nc2c1 (stereo not given) | 39.7
56 | Cc1cc(OCC(=O)Nc2ccc(S(=O)(=O)Nc3ncccn3)cc2)ccc1C(C)C | 9.55
57 | CCN(CC)C(=O)CN1CCC(c2cccc(Nc3nccs3)n2)CC1 | 3.58
58 | Cc1cccc(OCCCC(=O)Nc2ccc(S(=O)(=O)Nc3ncccn3)cc2)c1 | 1.47
59 | Cc1ccnc(NS(=O)(=O)c2ccc(NC(=O)COc3ccc(Cl)cc3)cc2)n1 | -4
60 | Cc1cnc(Nc2cccc(C3CCN(C(=O)C4CCC(=O)N4)CC3)n2)s1 (stereo not given) | -19.4
61 | Cc1ccc(S(=O)(=O)Nc2ccc(S(=O)(=O)Nc3ncccn3)cc2)cc1 | -3.26
62 | O=C(C1CCCCC1)N1CCOC(c2cccc(Nc3ncc(Cc4ccc(F)cc4)s3)n2)C1 (stereo not given) | -1.23
63 | Cc1cnc(Nc2cccc(C3CCN(C(=O)C4CCCC4)CC3)n2)s1 | -11
64 | COc1ccc(OCC(=O)Nc2ccc(S(=O)(=O)Nc3ccccn3)cc2)cc1 | -0.725
65 | CCC(C)(C)C(=O)Nc1ccc(S(=O)(=O)Nc2ncccn2)cc1 | -5.08
66 | Cc1ccc(CC(=O)Nc2ccc(S(=O)(=O)Nc3ncccn3)cc2)cc1 | -14.8
67 | COc1ccccc1CCC(=O)N1CCOC(c2cccc(Nc3ncc(C)s3)n2)C1 (stereo not given) | 10.8
68 | CCCc1cnc(Nc2cccc(C3CCN(C(=O)[C@@H]4CCCN4C(=O)OC(C)(C)C)CC3)n2)s1 | -17.1
69 | O=C(c1[nH]nc2c1CCCCC2)N1CCCC1c1cccc(Nc2nccs2)n1 (stereo not given) | -20.1
70 | Cc1cc(C)nc(NS(=O)(=O)c2ccc(NC(=O)COc3c(C)cccc3C)cc2)n1 | -12.1
71 | Cc1cc(C)nc(NS(=O)(=O)c2ccc(NCc3cc(Cl)ccc3O)cc2)n1 | 0.815
72 | O=C(C1CCCCC1)N1CCC(c2cccc(Nc3ncc(Cc4ccccc4)s3)n2)CC1 | -3.1

Row | Structure (SMILES) | relative growth recovery [%]
73 | Cc1cc(C)nc(NS(=O)(=O)c2ccc(NC(=O)c3ccc(C)c(C)c3)cc2)n1 | -1.41
74 | O=C(Nc1ccc(S(=O)(=O)Nc2ccccn2)cc1)c1cccnc1 | 0.275
75 | Cc1cnc(Nc2cccc(CC3CCN(C(=O)Cn4c(CC(C)C)nc5ccccc54)CC3)n2)s1 | -3.17
76 | Cc1nc(Nc2cccc(C3CCCN3C(=O)CN3C(=O)NC(C)(C)C3=O)n2)sc1C (stereo not given) | 6.9
77 | Cc1cc(NS(=O)(=O)c2ccc(NC(=O)C3COc4ccccc4O3)cc2)nc(C)n1 (stereo not given) | -6.75
78 | Cc1cnc(Nc2cccc(C3CCN(C(=O)C4CCN(C(C)C)CC4)CC3)n2)s1 | 2.37
79 | O=C(/C=C/c1ccccc1Cl)Nc1ccc(S(=O)(=O)Nc2ncccn2)cc1 | -17.9
80 | Cc1nc(Nc2cccc(C3CN(C(=O)CCc4c(C)n[nH]c4C)CCO3)n2)sc1C (stereo not given) | -0.835
81 | CNC(=O)C(c1cccc(Nc2ncc(C)s2)n1)C1CCN(C(=O)C2CCCCC2)CC1 (stereo not given) | 1.55
82 | Cc1cc(NS(=O)(=O)c2ccc(NC(=O)c3ccc(C)c(C)c3)cc2)nc(C)n1 | -5.74
83 | CCCc1cnc(Nc2cccc(C3CCN(C(=O)[C@@H](N)C(C)O)CC3)n2)s1 (stereo not given in full) | -18.6
84 | O=S(=O)(Nc1ncccn1)c1ccc(-n2cnnn2)cc1 | -1.73
85 | CCCCc1cnc(Nc2cccc(C3CCN(C(=O)C(C)(C)NC(=O)COC)CC3)n2)s1 | -1.08
86 | O=C(Nc1ccc(S(=O)(=O)Nc2ccccn2)cc1)c1ccncc1 | -1.46
87 | COCC(C)NC(=O)CN1CCC(c2cccc(Nc3ncc(C)s3)n2)CC1 (stereo not given) | -1.86
88 | Cc1cc(C)nc(NS(=O)(=O)c2ccc(NC(=O)C34CC5CC(CC(C5)C3)C4)cc2)n1 | 1.28
89 | Cc1cc(C)c(OCC(=O)Nc2ccc(S(=O)(=O)Nc3nc(C)cc(C)n3)cc2)c(C)c1 | -0.38
90 | Cc1cnc(Nc2cccc(C3CCCN3C(=O)CCc3cccc(Cl)c3)n2)s1 (stereo not given) | 8.7
91 | Cc1ccc(Nc2nc(C3CCCN3C(=O)/C=C/c3csc(C)n3)cs2)nc1 (stereo not given) | 0.31
92 | Cc1ccc(C)c(OCC(=O)Nc2ccc(S(=O)(=O)Nc3ccccn3)cc2)c1C | -3.9
93 | Cc1cc(C)c2[nH]c3nc(SCC(=O)Nc4ccc(Cl)cc4)nnc3c2c1 | -11.9
94 | Cc1cc(OCC(=O)Nc2ccc(S(=O)(=O)Nc3ccccn3)cc2)ccc1Cl | -1.66
95 | CCCc1cnc(Nc2cccc(C3CCN(C(=O)Cn4c(CC(C)C)nc5ccccc54)CC3)n2)s1 | -2.13
